The other results are listed elsewhere or left out. Shown are side measurements of this screen, not its main read-out; they come without a call.

Common to all, as to test: Primary Screen for Target Class Profiling of Small Molecule Inhibitors of Methyltransferases
Assay [1] deals with Glycine N-methyltransferase (Homo sapiens) (UniProt Q14749). The settings on record: purified enzyme, MTase-Glo SAH luminescence; measured here: GNMT inhibition; at 40 µM; stronger effect = lower value. The method, boiled down:
(§1)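 Each enzyme was assayed with SAM and its substrate. SAH formation detected by MTase-Glo luminescence; single-point 40 uM screen[…].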

Assay [2] deals with Guanidinoacetate N-methyltransferase (Homo sapiens) (UniProt Q14353). Conditions: purified enzyme, MTase-Glo SAH luminescence; measured here: GAMT inhibition; at 40 µM; stronger effect = lower value. The essentials:
as §1

Assay [3] deals with Histamine N-methyltransferase (Homo sapiens) (UniProt P50135). Conditions: purified enzyme, MTase-Glo SAH luminescence; measured here: HNMT inhibition; at 40 µM; stronger effect = lower value. The essentials: as §1
Assay [4] addresses Nicotinamide N-methyltransferase (Homo sapiens) (UniProt P40261). The settings on record: purified enzyme, MTase-Glo SAH luminescence; measured here: NNMT inhibition; at 40 µM; stronger effect = lower value. The method, boiled down: as §1
Assay [5] has as its target Phenylethanolamine N-methyltransferase (Homo sapiens) (UniProt P11086). The settings on record: purified enzyme, MTase-Glo SAH luminescence; measured here: PNMT inhibition; at 40 µM; stronger effect = lower value. The method, boiled down: as §1
On the % scale 0 is the no-effect control and ±100 the full control effect.

On to `CCCNc1ccc2ncc(-c3ccc4[nH]ncc4c3)n2n1`, for which the activity change, negative = inhibition in assay [1] is -70.3%; in assay [2], -33.8%; in assay [3], -75.2%; in assay [4], -40.5%; in assay [5], -48.7%.
Take `C=C1[C@H](CO)[C@@H](O)C[C@@H]1n1cnc2c(=O)[nH]c(N)nc21`: the activity change, negative = inhibition in assay [1] is 7.08%; in assay [2], 3.9%; in assay [3], 5.54%; in assay [4] it was -8.41%; in assay [5], 1.77%.
Take `CN(C)CCN1CC2(CCN(C(=O)CCCS(N)(=O)=O)CC2)OC1=O`: the activity change, negative = inhibition in assay [1] was -1.31%; in assay [2] it was -5.81%; in assay [3] it was 0.164%; in assay [4], -1.25%; in assay [5], -3.67%.
With `Cc1ccc(Cn2nc3n(C(C)C)c(=O)c4ccc(C(=O)NC5CCCCC5)cc4n3c2=O)cc1`, the activity change, negative = inhibition was found to be 5.99% in assay [1]; 0% in assay [2]; 11% in assay [3]; 5.04% in assay [4]; 5.68% in assay [5].
For the compound `CC(C)(O)C(O)C(=O)OCc1ccc(O[C@@H]2O[C@H](CO)[C@@H](O)[C@H](O)[C@H]2O)cc1` (some centres undefined), the activity change, negative = inhibition in assay [1] was -0.315%; in assay [2], 1.83%; in assay [3], 3.51%; in assay [4], -9.65%; in assay [5] it was 3.53%.
Regarding `CN(Cc1ccccc1)Cc1cn([C@H]2CO[C@H]3[C@@H]2OC[C@@H]3NCc2ccccc2)nn1`, the activity change, negative = inhibition in assay [1] is -22.8%; in assay [2] it was -19.6%; in assay [3] it was 2.33%; in assay [4], -4%; in assay [5], -19%.
For `COC(=O)c1cc2n(n1)CC(C)(C(=O)NC1CCC(C)CC1)N(Cc1ccccc1)C2=O` (centres undefined) the same measures were 0.864%, 4.74%, 3.74%, -4.73% and 1.59%.
As to `CCCn1c(=O)c2cc(F)ccc2n2c(SCC(=O)N3CCN(c4ccccc4F)CC3)nnc12`, the activity change, negative = inhibition in assay [1] is -3.83%; in assay [2], 2.3%; in assay [3], 6.64%; in assay [4] it was -13%; in assay [5] it was 0.733%.
For the compound `C=C1CCC2[C@](C)(CCC[C@]2(C)C(=O)O)[C@H]1CC/C(C)=C/C(=O)OC` (some centres undefined), the activity change, negative = inhibition is -0.716% in assay [1]; 1.27% in assay [2]; 10.3% in assay [3]; -16.1% in assay [4]; -2.66% in assay [5].
With `CC(=C/C(=O)O)/C=C/[C@]1(O)[C@@]2(C)CO[C@]1(C)C[C@H](O[C@@H]1O[C@H](CO)[C@@H](O)[C@H](O)[C@H]1O)C2`, the activity change, negative = inhibition was 0.133% in assay [1]; -3% in assay [2]; 5.33% in assay [3]; -13.6% in assay [4]; 4.39% in assay [5].
In the case of `CCOC(=O)c1cc2n(n1)CC(C)(C(=O)NC1CCCCC1)N(Cc1ccc(Cl)cc1)C2=O` (centres undefined), the activity change, negative = inhibition in assay [1] was -0.945%; in assay [2], 0.923%; in assay [3], -4.1%; in assay [4], -9.65%; in assay [5], -3.44%.
For `C[C@H]1CC(=O)C2=C(C1)C(O)C(O)[C@@]1(O)[C@H]2C(=O)c2cccc(O)c2[C@@H]1O` (some centres undefined) the same measures were -1.74%, -3.13%, 9.19%, -14.5% and -8.44%.
Take `CC/C=C(\C(=O)N[C@@H]1C(=O)N2C(C(=O)OCOC(=O)C(C)(C)C)=C(COC(N)=O)CS[C@H]12)c1csc(N)n1`: the activity change, negative = inhibition in assay [1] is -8.05%; in assay [3], -1.15%.
As for `NC(=O)c1cnc(-c2ccc(C3(N)CCC3)cc2)c(-c2ccccc2)c1`, the activity change, negative = inhibition in assay [1] is -18.7%; in assay [2] it was 6.8%; in assay [3] it was -39.7%; in assay [4] it was -61.1%; in assay [5] it was -2.81%.
As for `O=C(NCCc1ccc(F)cc1)c1cc(CN2CCOCC2)on1`, the activity change, negative = inhibition in assay [1] was -3.9%; in assay [2] it was -4.64%; in assay [3] it was -0.469%; in assay [4] it was -6.6%; in assay [5], -29.6%.
On to `Cc1cccc(C2CN(C)CCc3c2cc(O)c(O)c3Cl)c1` (centres undefined), for which the activity change, negative = inhibition was -21.8% in assay [1]; 12.5% in assay [2]; -42.5% in assay [3]; -3.91% in assay [4]; 4.23% in assay [5].
As to `C=CCn1c(=O)c2ccc(C(=O)NC(C)C)cc2n2c(=O)n(CC(N)=O)nc12`, the activity change, negative = inhibition in assay [1] came out at 9.4%; in assay [2] it was 2.35%; in assay [3] it was 12.5%; in assay [4], 6.51%; in assay [5], 6.95%.
As for `CC(C)CCn1c(=O)c2ccc(C(=O)NCC(C)C)cc2n2c(=O)n(Cc3ccc(F)cc3Cl)nc12`, the activity change, negative = inhibition in assay [1] was 6.71%; in assay [2], 0.208%; in assay [3] it was 9.14%; in assay [4], 3.57%; in assay [5], 3.25%.
For `Cc1cc(C)cc(NC(=O)CSc2nnc3n(CC(C)C)c(=O)c4ccccc4n23)c1`, the activity change, negative = inhibition in assay [1] was 1.96%; in assay [2] it was 0.56%; in assay [3], 7.98%; in assay [4], -6.33%; in assay [5] it was 4.13%.
On to `COc1ccc(OC)c2c1cc1n2CC(C)(C(=O)NC2CCCCCC2)N(Cc2cccnc2)C1=O` (centres undefined), for which the activity change, negative = inhibition in assay [1] was 2.01%; in assay [2], 2.04%; in assay [3] it was 8.55%; in assay [4], -6.58%; in assay [5], 4.82%.
With `Cc1nc(N=Nc2cc(S(=O)(=O)O)c3cc([N+](=O)[O-])cc(S(=O)(=O)O)c3c2)c(COP(=O)(O)O)c(C=O)c1O`, the activity change, negative = inhibition is -26.5% in assay [1]; 3.33% in assay [2]; -1.5% in assay [3]; -4.57% in assay [4]; 4.56% in assay [5].
Turning to `CN1CCN(c2ccc(Nc3cc(-c4cccc(-n5ccc6cc(C7CC7)cc(F)c6c5=O)c4CO)cn(C)c3=O)nc2)CC1`, the activity change, negative = inhibition in assay [1] is -10.6%; in assay [2] it was -8.43%; in assay [3] it was -36.1%; in assay [4] it was -22.1%; in assay [5], -8.56%.
With `Cc1cnc(CC2CCCN(C(=O)N(C)C)C2)n1C(C)C` (centres undefined), the activity change, negative = inhibition in assay [1] is 1.55%; in assay [2], -5.65%; in assay [3] it was -11.1%; in assay [4], 2.67%; in assay [5], 0.786%.
For `COCCN1C(=O)[C@H]2CN(Cc3ccc(C)s3)C[C@H]2C1=O` the same measures were 0.907%, -4.01%, 1.86%, -1.3% and -10.9%.
For `CSc1ccc(CCNC(=O)c2cc3n(n2)CC(C)(C(=O)NC2CCCC2)N(C)C3=O)cc1` (centres undefined) the same measures were -0.713%, 0%, 4.79%, 3.01% and 2.13%.
For `COc1ccc(-c2cc3n(n2)CC(C)(C(=O)NCc2ccccc2)N(Cc2ccc4c(c2)OCO4)C3=O)cc1` (centres undefined) the same measures were 4.74%, 1.59%, 3.16%, 7.42% and 1.47%.
With `COc1cc(/C=C/CO)ccc1O[C@@H]1O[C@H](CO)[C@@H](O)[C@H](O)[C@H]1O`, the activity change, negative = inhibition in assay [1] was 6.32%; in assay [2], 6.43%; in assay [3], 10%; in assay [4], -5.21%; in assay [5], 4.3%.
Consider `COc1ccc(N(C(=O)c2ccc(C)cc2)S(=O)(=O)c2ccc3c(c2)n(C)c(=O)n3C)cc1`, for which the activity change, negative = inhibition in assay [1] was -5.77%; in assay [2], 7.25%; in assay [3], -6.04%; in assay [4], -8.51%; in assay [5], -2.83%.
For the compound `c1ccc(-c2noc(CC3CCOC4(CCN(Cc5cccnc5)CC4)C3)n2)cc1` (centres undefined), the activity change, negative = inhibition was -3.27% in assay [1]; 1.31% in assay [2]; -0.127% in assay [3]; -9.92% in assay [4]; -1.44% in assay [5].
On to `CN(CC1COCCO1)S(=O)(=O)Nc1ccc2ccc3ncc(-c4cnn(C)c4)cc3c(=O)c2c1` (centres undefined), for which the activity change, negative = inhibition in assay [1] was -15%; in assay [3], -3.84%.

For the origin of these results see PubChem BioAssay AID1745853 (National Center for Advancing Translational Sciences (NCATS), 2022).
